# Laboratory results reported in the supplement of paper PMC8728848.
# The list shows a part of the results.
# B1: Sialidase (Vibrio cholerae), P37060 (protein)
# chain: GAMALFDYNATGDTEFDSPAKQGWMQDNTNNGSGVLTNADGMPAWLVQGIGGRAQWTYSLSTNQHAQASSFGWRMTTEMKVLSGGMITNYYANGTQRVLPIISLDSSGNLVVEFEGQTGRTVLATGTAATEYHKFELVFLPGSNPSASFYFDGKLIRDNIQPTASKQNMIVWGNGSSNTDGVAAYRDIKFEIQGDALNGSMALFDYNATGDTEFDSPAKQGWMQDNTNNGSGVLTNADGMPAWLVQGIGGRAQWTYSLSTNQHAQASSFGWRMTTEMKVLSGGMITNYYANGTQRVLPIISLDSSGNLVVEFEGQTGRTVLATGTAATEYHKFELVFLPGSNPSASFYFDGKLIRDNIQPTASKQNMIVWGNGSSNTDGVAAYRDIKFEIQGDLQALGMALFDYNATGDTEFDSPAKQGWMQDNTNNGSGVLTNADGMPAWLVQGIGGRAQWTYSLSTNQHAQASSFGWRMTTEMKVLSGGMITNYYANGTQRVLPIISLDSSGNLVVEFEGQTGRTVLATGTAATEYHKFELVFLPGSNPSASFYFDGKLIRDNIQPTASKQNMIVWGNGSSNTDGVAAYRDIKFEIQGD
# Experiments:
# Assay in all cases: glycan array binding signal (z-score within array); higher = stronger binding
# Details in all cases: glycan notation: IUPAC condensed, linker removed
# [1] = molecular target: Gal(b1-4)GlcNAc(b1-3)[GlcNAc(b1-6)]Gal(b1-4)GlcNAc
# Procedure, shortened: (§1)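 Glycan array data came from 3228 arrays in the Consortium for Functional Glycomics database, and only arrays with an available protein sequence were kept. Glycan names were put into IUPAC-condensed notation, and columns mapping to the same glycan were averaged. The binding signal is a within-array Z-score, averaged across arrays of one protein sequence run at different concentrations or buffers and across linkers. A negative Z-score can be read as non-binding.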
# [2] = molecular target: Gal(b1-4)GlcNAc(b1-6)Gal(b1-4)GlcNAc
# Procedure, shortened: as §1
# [3] = molecular target: Gal(b1-4)GlcNAc(b1-6)Gal(b1-4)GlcNAc(b1-6)GalNAc
# Procedure, shortened: as §1
# [4] = molecular target: Gal(b1-4)GlcNAc(b1-6)GalNAc
# Procedure, shortened: as §1
# [5] = molecular target: Gal(b1-4)GlcNAc(b1-6)[Gal(b1-3)]GalNAc
# Procedure, shortened: as §1
# Gal3S(b1-3)GalNAc = molecular target: Gal3S(b1-3)GalNAc
# Procedure, shortened: as §1
# Gal3S(b1-3)GlcNAc = molecular target: Gal3S(b1-3)GlcNAc
# Procedure, shortened: as §1
# [6] = molecular target: Gal3S(b1-3)[Fuc(a1-4)]GlcNAc
# Procedure, shortened: as §1
# Gal3S(b1-4)Glc = molecular target: Gal3S(b1-4)Glc
# Procedure, shortened: as §1
# Gal3S(b1-4)Glc6S = molecular target: Gal3S(b1-4)Glc6S
# Procedure, shortened: as §1
# Gal3S(b1-4)GlcNAc = molecular target: Gal3S(b1-4)GlcNAc
# Procedure, shortened: as §1
# Gal3S(b1-4)GlcNAc6S = molecular target: Gal3S(b1-4)GlcNAc6S
# Procedure, shortened: as §1
# [7] = molecular target: Gal3S(b1-4)[Fuc(a1-3)]Glc
# Procedure, shortened: as §1
# Gal3S4S(b1-4)GlcNAc = molecular target: Gal3S4S(b1-4)GlcNAc
# Procedure, shortened: as §1
# Gal3S6S(b1-4)GlcNAc = molecular target: Gal3S6S(b1-4)GlcNAc
# Procedure, shortened: as §1
# Gal3S6S(b1-4)GlcNAc6S = molecular target: Gal3S6S(b1-4)GlcNAc6S
# Procedure, shortened: as §1
# Gal4S(b1-4)GlcNAc = molecular target: Gal4S(b1-4)GlcNAc
# Procedure, shortened: as §1
# Gal4S6S(b1-4)GlcNAc = molecular target: Gal4S6S(b1-4)GlcNAc
# Procedure, shortened: as §1
# Gal6S(b1-4)Glc = molecular target: Gal6S(b1-4)Glc
# Procedure, shortened: as §1
# Gal6S(b1-4)Glc6S = molecular target: Gal6S(b1-4)Glc6S
# Procedure, shortened: as §1
# Gal6S(b1-4)GlcNAc = molecular target: Gal6S(b1-4)GlcNAc
# Procedure, shortened: as §1
# Gal6S(b1-4)GlcNAc6S = molecular target: Gal6S(b1-4)GlcNAc6S
# Procedure, shortened: as §1
# GalNAc(a1-3)Gal = molecular target: GalNAc(a1-3)Gal
# Procedure, shortened: as §1
# GalNAc(a1-3)GalNAc = molecular target: GalNAc(a1-3)GalNAc
# Procedure, shortened: as §1
# GalNAc(b1-3)Gal = molecular target: GalNAc(b1-3)Gal
# Procedure, shortened: as §1
# [8] = molecular target: GalNAc(b1-3)Gal(a1-4)Gal(b1-4)GlcNAc
# Procedure, shortened: as §1
# [9] = molecular target: GalNAc(b1-3)Gal(a1-4)Gal(b1-4)GlcNAc(b1-3)Gal(b1-4)Glc
# Procedure, shortened: as §1
# GalNAc(b1-3)GalNAc = molecular target: GalNAc(b1-3)GalNAc
# Procedure, shortened: as §1
# GalNAc(b1-4)GlcNAc = molecular target: GalNAc(b1-4)GlcNAc
# Procedure, shortened: as §1
# [10] = molecular target: GalNAc(b1-4)GlcNAc(b1-2)Man(a1-3)[GalNAc(b1-4)GlcNAc(b1-2)Man(a1-6)]Man(b1-4)GlcNAc(b1-4)GlcNAc
# Procedure, shortened: as §1
binder,measurement,setting,value
B1,glycan array binding signal (z-score),[1],0.116
same,glycan array binding signal (z-score),[2],-0.499
same,glycan array binding signal (z-score),[3],-0.211
same,glycan array binding signal (z-score),[4],-0.467
same,glycan array binding signal (z-score),[5],-0.26
same,glycan array binding signal (z-score),Gal3S(b1-3)GalNAc,-0.567
same,glycan array binding signal (z-score),Gal3S(b1-3)GlcNAc,-0.228
same,glycan array binding signal (z-score),[6],-0.553
same,glycan array binding signal (z-score),Gal3S(b1-4)Glc,-0.25
same,glycan array binding signal (z-score),Gal3S(b1-4)Glc6S,0.098
same,glycan array binding signal (z-score),Gal3S(b1-4)GlcNAc,-0.016
same,glycan array binding signal (z-score),Gal3S(b1-4)GlcNAc6S,0.248
same,glycan array binding signal (z-score),[7],0.04
same,glycan array binding signal (z-score),Gal3S4S(b1-4)GlcNAc,-0.635
same,glycan array binding signal (z-score),Gal3S6S(b1-4)GlcNAc,-0.152
same,glycan array binding signal (z-score),Gal3S6S(b1-4)GlcNAc6S,1.12
same,glycan array binding signal (z-score),Gal4S(b1-4)GlcNAc,-0.661
same,glycan array binding signal (z-score),Gal4S6S(b1-4)GlcNAc,0.765
same,glycan array binding signal (z-score),Gal6S(b1-4)Glc,-0.342
same,glycan array binding signal (z-score),Gal6S(b1-4)Glc6S,0.513
same,glycan array binding signal (z-score),Gal6S(b1-4)GlcNAc,-0.619
same,glycan array binding signal (z-score),Gal6S(b1-4)GlcNAc6S,0.552
same,glycan array binding signal (z-score),GalNAc(a1-3)Gal,0
same,glycan array binding signal (z-score),GalNAc(a1-3)GalNAc,-0.501
same,glycan array binding signal (z-score),GalNAc(b1-3)Gal,-0.591
same,glycan array binding signal (z-score),[8],-0.421
same,glycan array binding signal (z-score),[9],0.072
same,glycan array binding signal (z-score),GalNAc(b1-3)GalNAc,-0.52
same,glycan array binding signal (z-score),GalNAc(b1-4)GlcNAc,-0.453
same,glycan array binding signal (z-score),[10],-0.622
